The whole screen tested about 52,000 compounds, of which about 4,300 (8.3%) were called active. Rule as the data show it: active = survival mostly below about 52% (no sharp cut-off); inactive = mostly above about 56%. Some of the results follow.

This test has as its system DeltatarO mutant. The experiment in a line: S. aureus survival, RN4220 and DeltatarO strains – OD600, teichoic acid synthesis inhibitors, primary screen (AID 463173). As to conditions: S. aureus RN4220 wild type/DeltatarO growth, OD600, 18 h, hits give low values, screened at 18.75 µg/mL (by protocol).
Take `Cc1c(C(=O)Nc2cccc(C#N)c2)sc2nc3n(c(=O)c12)CCCCC3`: the survival is inactive: 67%.

Turning to `O=C(COc1ccc(Cl)cc1)Nc1ccc(-c2nc3cc(Cl)ccc3o2)c(O)c1`, the survival was inactive: 75%. As for `O=S(=O)(c1ccc(Cl)c2ccccc12)N1CCCC1`, the figure is inactive: 86%; as for `CCc1cccc(C)c1NC(=O)CN1C(=O)c2ccccc2Sc2ncccc21`, inactive: 90%; as for `COc1ccc(NS(=O)(=O)c2c(C)nc3scc(C)n3c2=O)cc1`, inactive: 90%. On to `O=C(Nc1ccc2nc(SCC(=O)N3CCOCC3)sc2c1)c1cccc(F)c1`, for which the survival was inactive: 86%. Consider `O=C(NCc1cccnc1)c1c[nH]c2cc3c(cc2c1=O)OCCO3`, for which the survival is inactive: 100%. As for `CCCCNC(=O)CCSc1nc(-c2ccc3c(c2)OCO3)cc(C(F)(F)F)n1`, the survival is inactive: 80%.

In the case of `CCOC(=O)N1CCN(S(=O)(=O)N2CCCC(C(=O)NCc3ccc(OC)cc3OC)C2)CC1` (centres undefined), the survival is inactive: 90%. For `O=c1oc2ccc(Cl)cc2cc1-c1cn2c(n1)sc1ccccc12` the value was inactive: 119%. For the compound `COc1cccc(NC(=O)CSC2=Nc3ccccc3C3=NC(CC(=O)NCc4ccccc4OC)C(=O)N23)c1` (centres undefined), the survival was inactive: 129%. For `Clc1ccccc1-c1nnc(SCc2nc(-c3ccccc3)no2)n1-c1ccccc1`, the survival is inactive: 52%. `O=C(NCCc1ccc(Cl)cc1)c1ccc(CSCc2ccc(Cl)cc2)o1`: the survival is inactive: 83%.

`CCOc1ccc(NC(=O)CCC(=O)N2CCSc3ccccc32)cc1`: the survival was inactive: 75%. In the case of `CCCC(=O)n1nc(-c2cccnc2)nc1NCc1ccccc1`, the survival is inactive: 81%. As for `CCc1ccccc1NC(=O)Cn1c(=O)n(CCc2ccccc2)c(=O)c2ccccc21`, the figure is inactive: 89%. Turning to `CCC(=O)N1CCc2cc(Br)cc(S(=O)(=O)N3CCCC(C(=O)Nc4ccc(OC)cc4OC)C3)c21` (centres undefined), the survival is inactive: 65%. As for `CCc1ccc(S(=O)(=O)c2nnn3c2nc(NC(C)C)c2cc(Cl)ccc23)cc1`, the figure is inactive: 92%; as for `CCOC(=O)c1cc2sc(C)cc2n1CC(=O)N1CCCCC1C` (centres undefined), inactive: 96%. Turning to `CC12CN3CC(c4ccccc4)(CN(C1)C3c1ccc(Cl)cc1)C2=O` (centres undefined), the survival was inactive: 89%.

Consider `CC(=O)c1cc(-c2ccccc2)n(CCC(=O)NC2CCCCC2)c1C`, for which the survival is inactive: 67%. As for `COc1ccccc1CNC(=O)c1ccc(CS(=O)c2ccccc2Cl)o1` (centres undefined), the figure is inactive: 80%; as for `COC(=O)c1scc(-c2ccccc2)c1S(=O)(=O)Nc1ccc(C)c(Cl)c1`, inactive: 85%. Consider `CCOc1ccc(NC(=O)c2c(NCc3cccs3)sc3c2CCCCC3)cc1`, for which the survival is inactive: 74%. Turning to `Cc1cccc(OCC(=O)N(Cc2ccc(N(C)C)cc2)Cc2ccco2)c1C`, the survival was active: 42%. Regarding `COc1ccc(C2C=C(c3ccccc3)Nc3nc(NC(=O)/C=C/c4ccccc4OC)nn32)cc1` (centres undefined), the survival is active: 52%. As for `Cc1ccnc2nc(NC(=O)c3ccccc3Cl)nn12`, the figure is inactive: 86%; as for `CCc1ccc2[nH]c(=O)c(CN(Cc3ccco3)C(=O)c3ccccc3)cc2c1`, inactive: 101%.

For `CC(C)Oc1ccc(CNC(=O)c2cccc(NC(=O)c3nsc4ccccc34)c2)cc1`, the survival is inactive: 78%.

On to `Cc1cc(C)cc(NC(=O)N2CCC(N3CCN(Cc4ccccc4)C(=O)C3=O)CC2)c1`, for which the survival is inactive: 77%. Take `O=C(Nc1ccc(C(=O)OCc2cc(=O)n3ccsc3n2)cc1)c1cccc(F)c1`: the survival is inactive: 102%. For `CCOc1ccc(CC(=O)Nc2c(C(=O)c3ccc(F)cc3)oc3ccc(Cl)cc23)cc1OCC` the value was inactive: 83%. For `Nc1cccc(CN2CCCC2)c1` the value was inactive: 101%; for `COc1ccc(OC)c(CNC(=O)C2CCN(S(=O)(=O)c3ccc4[nH]c(=O)oc4c3)CC2)c1`, inactive: 88%; for `COc1ccc(NC(=O)C(=O)NCc2ccco2)c(OC)c1`, inactive: 161%.

With `COc1ccc(N2CCN(c3oc(/C=C/c4ccccc4OC)nc3C#N)CC2)cc1`, the survival is inactive: 64%.

With `Cc1noc2ncnc(NCc3ccc(Cl)cc3)c12`, the survival is inactive: 116%. For `Cc1cc(NC(=O)C2CCCN(S(=O)(=O)c3cn(C)cn3)C2)ccc1Br` (centres undefined) the value was inactive: 102%; for `Cc1ccc(-c2cc(NC(=O)C(C)Oc3ccccc3F)on2)cc1` (centres undefined), active: 33%; for `CN(C)c1ccc(C(=O)Nc2ccc(-c3nc4ccccc4o3)cc2)cc1`, inactive: 89%. Take `CCOC(=O)c1ccc(-c2ccc(/C=C(\C#N)C(=O)NCc3cccs3)o2)cc1`: the survival was inactive: 75%.

On to `CC(C)NC(=O)CSc1nc2ccccc2n1CC(=O)NC(C)C`, for which the survival was inactive: 96%. As for `Cc1ccc(CNC(=O)c2c[nH]n3c(=O)c(Cc4ccc(F)cc4Cl)c(C)nc23)cc1`, the figure is active: -13%; as for `CCNC(=S)N1CCC(n2cnc3ccccc32)CC1`, inactive: 95%.

Consider `Cn1c(C(=O)N2CCC(C(=O)N3CCN(c4ccccc4)CC3)CC2)cc2sccc21`, for which the survival was inactive: 64%. `CN1CCN(S(=O)(=O)c2cccc(S(=O)(=O)c3ccc(Cl)c(Cl)c3)c2)CC1`: the survival is inactive: 102%. Regarding `COc1ccc(N2Cc3cccc(C(=O)Nc4cccc(F)c4)c3C2=O)cc1`, the survival was inactive: 71%. Take `CCOc1ccc(S(=O)(=O)N(CC(=O)NCCSc2ccc(C)cc2)c2ccccc2)cc1`: the survival is inactive: 76%.

On to `Cc1ccc(NC(=O)N2CCN(c3ccc(Cl)c(Cl)c3)CC2)cc1`, for which the survival was inactive: 102%. For the compound `CCc1nnc(SCC(=O)Nc2cc(OC)ccc2OC)nc1CC`, the survival is inactive: 74%. `CCN(Cc1ccccc1)C(=O)c1cc2c(=O)[nH]c3ccc(C)cc3c2s1`: the survival is inactive: 49%.

Regarding `Cc1ccc(CCNC(=O)c2cc3n(n2)CCCN(Cc2ccc(C)cc2)C3=O)cc1`, the survival was inactive: 55%. Regarding `COC(=O)c1c(NC(=O)c2cccs2)sc2c1C(C(=O)OC)CC2` (centres undefined), the survival was inactive: 94%. For `Cc1ccc2c(c1)-c1onc(C(=O)N3CCN(c4cc(Cl)ccc4C)CC3)c1CO2` the value was active: 57%. In the case of `CCC(=O)N1CCc2cc(CNC(=O)Cc3ccc(F)cc3)ccc21`, the survival was inactive: 87%.

For `CCOc1cccc(C(=O)Nc2ccc(Cl)cn2)c1`, the survival is inactive: 72%. As to `CCOc1ccc(-c2nnc(SCC(=O)Nc3ccc(C)cc3Cl)o2)cc1`, the survival was inactive: 101%. With `CC1Cc2ccccc2N1S(=O)(=O)c1nnc(NC(=O)c2cccc(F)c2)s1` (centres undefined), the survival is active: 6%. For the compound `O=C(NC1CCCC1)C(c1ccsc1)N(C(=O)Cc1cccs1)c1ccccc1` (centres undefined), the survival was inactive: 86%.

Turning to `Cc1ccc(NC(=O)c2cc(S(=O)(=O)NC3CCCCC3)ccc2F)cc1Cl`, the survival is active: -5%. With `CCC(=O)N1CCc2cc(CNC(=O)c3ccc(OC)cc3)ccc21`, the survival was inactive: 122%. `COc1ccc(-c2nc(CN3CCC(C(=O)NCCc4ccccc4)CC3)c(C)o2)cc1OC`: the survival was inactive: 86%. As for `CCCCn1cc(S(=O)(=O)c2ccc(C)c(C)c2)c(=O)c2cc(F)c(N(CC)CC)cc21`, the figure is inactive: 89%; as for `Cc1ccc(NC(=O)CSc2nc(=O)n(Cc3ccco3)c3c2CCC3)cc1F`, inactive: 81%. `Cn1c(=O)c(=O)n(C)c2cc(N3CCCC3)c(NC(=O)c3ccccc3F)cc21`: the survival is inactive: 98%.

As for `O=C(Nc1sc2c(c1C(=O)Nc1cccc(Cl)c1)CCCC2)c1cccs1`, the survival was inactive: 159%.

For `COc1ccc2[nH]cc(CCNC(=O)c3cnn(-c4ccc(C)cc4)c3C3CCN(C(=O)OC(C)(C)C)CC3)c2c1`, the survival was inactive: 90%.

As to `COCCN1C(=O)c2oc3ccc(C)cc3c(=O)c2C12C(=O)N(C)c1ccccc12` (centres undefined), the survival was active: 45%.

As for `COC(=O)c1cc2oc3ccccc3c2n1Cc1nc(-c2cccc(C)c2)oc1C`, the survival was inactive: 71%. On to `CC(C)N(Cc1ccccc1)C(=O)C1CCCN(c2ncnc3onc(-c4ccc(F)cc4)c23)C1` (centres undefined), for which the survival is inactive: 94%. Regarding `COc1ccccc1CNC(=O)c1cnc(SC)nc1C`, the survival is inactive: 98%. As to `COCC(=O)Nc1cccc(-c2nc3cccnc3s2)c1`, the survival was inactive: 68%.

In the case of `Cc1c(C(=O)N2CCC(C)CC2)c(S(=O)(=O)Nc2cccc(C(F)(F)F)c2)c(C)n1C`, the survival is inactive: 94%. With `COc1ccc(OC)c(CCNC(=O)c2cnn(-c3ccc(C)cc3C)c2C2CCN(C(=O)OC(C)(C)C)CC2)c1`, the survival was inactive: 98%. As for `CCOC(=O)c1c(NC(=O)COc2ccc(C)cc2C(C)(C)C)sc2c1CCC(C)C2` (centres undefined), the survival is inactive: 55%. Consider `Cc1ccc(Cn2c(CNC(=O)Cc3cccc(C)c3)nc3cccnc32)cc1`, for which the survival is inactive: 94%. Regarding `CC(=O)c1ccc(N2CCN(S(=O)(=O)c3cc(-c4noc(C)n4)ccc3C)CC2)cc1`, the survival was inactive: 118%. With `COc1ccc(CNC(=O)Cn2c(=O)ccc3cc(S(=O)(=O)N4CCCC4)ccc32)cc1`, the survival is inactive: 115%. As for `Cc1nn(S(=O)(=O)c2ccc(C(C)(C)C)cc2)c(C)c1S(=O)(=O)N1CCC(C)CC1`, the survival is inactive: 74%. Take `Cc1ccc(-c2nnc(Nc3ccc(F)cc3)c3ccccc23)cc1S(=O)(=O)N1CCN(C)CC1`: the survival is inactive: 94%. Consider `CC(C)CC(NC(=O)c1ccco1)C(=O)O` (centres undefined), for which the survival was inactive: 71%. On to `O=C(c1ccccc1Cl)N1CCCCC1CCN1CCOCC1` (centres undefined), for which the survival was inactive: 86%. Consider `CCOc1cccc2c1Oc1nc(-c3ccccc3)nc(SCC(=O)Nc3ccc(F)cc3)c1C2`, for which the survival was inactive: 81%. In the case of `CCOC(=O)c1ccc(N2C(=O)c3[nH]nc(-c4ccc(OCC)cc4)c3C2c2cccs2)cc1` (centres undefined), the survival was inactive: 79%. As for `CC(C)OC(=O)CSc1nnc(-c2ccccc2)n1Cc1ccco1`, the figure is inactive: 87%. As for `Cc1cc(-c2ccc(S(=O)(=O)N3CCN(c4ccc(Cl)cc4)CC3)s2)on1`, the survival is inactive: 124%. In the case of `COc1ccc(NC(=O)c2sc3nc4c(c(-c5ccc(OC)cc5)c3c2N)C(=O)CC(C)(C)C4)cc1`, the survival is inactive: 61%. As to `COc1ccc(-c2nc3scc(CCNC(=O)c4cccc(Br)c4)n3n2)cc1`, the survival was inactive: 90%.

As for `O=C(Nc1cc(-c2nc3cc(Cl)ccc3o2)ccc1Cl)c1cc([N+](=O)[O-])ccc1N1CCOCC1`, the survival was inactive: 50%.

The values are drawn from PubChem BioAssay AID463173 (ICCB-Longwood Screening Facility, Harvard Medical School, 2010).
